Measured values: the supplement of paper PMC12632987
Over roughly 4,500 sequences, “median log2 fold change of GCK-ALFA target abundance (FLAG IP / Myc IP barcode read proportion)” has its median near 0.078; the lowest 2% begin near -0.6. The list shows a part of the results.

B1: GBRAP_160_4307 (protein)
chain: MEELKKLKEEIKEIVEEAKKMLEGQSAEERKTIVKVTLGEILLLAFENPAISDELEDKIGEIADEAEEYLDENPDLSEEEIKELLEETAKKILELIDESE
B2: GBRAP_52_5991 (protein)
chain: MEEEAKEIAEKGLELMLAGKEEEAKALLEEAVKTKSEEFIKKVMEKLAEMAKKATPEEREAIVELAIMLEDIALEAGFDEAVADDGLARVAAAAYEALQA
B3: GBRAP_26_5450 (protein)
chain: LKEKLEEFREKLKELADELLDPETAALLKVEVDDIVALAELELEEANGDLEKMLEIVEEMVEDLKEALEDLGVPEEVKKKLMEKAEEEAEKIKKYLKEES
B4: GBRAP_42_5732 (protein)
chain: MTGVTLEIVVETREEAEKALAEAKEIVEEQLKKGDIVVIPEIAAPEEAKEIAEEMEELAEELRKKLDKISDWVVVAGPGEDIREAAEIAIDIAKEELEEE
B5: GBRAP_125_3152 (protein)
chain: SHDAAVAALAEIAARLGFDEGLVAEIAENAAAHSIKQTLYAIALAEDDERLADLVEQLSEAEVEAVVLEVAAWLAEHPDITPEELRARLLEVAEAALAAR
B6: GBRAP_184_5230 (protein)
chain: TVVNRSVEAETEEELIAKSEAVIAEAQAAGKEVNLHVIAKNVDLEGLRRVMAFLKAQKDAGKIKSATLVVEDELSEEELDELVALADEYGVRLVAALSEE
B7: GBRAP_128_3228 (protein)
chain: STEELKKKVRELLEKIKKADKEEAKKLAEELAKLIAESSVEEAEAMAEVVEELAPEMTEEQLDIMIEAFEEEARKLDSEVALELRDIAIIFGEELLEKME
B8: GBRAP_57_6468 (protein)
chain: MSPLEKVEKYVELAKKLIEEGAPKEEVLKEVRKALEELSHETLLDIALILDPSTSEDASREELIEHLLKLFEKALKEKGKEEAYKMLDLIEGEAEMEASE
B9: GBRAP_52_5871 (protein)
chain: ELEEAVKLLEEAVEAMKAGKEEEAKKLLKEIVETFSEETILAAVKRLAEKIKTKSLEEAEAFFETAELLADIMDEAGRDPNIASEIEAIAGAALYEVEKK
B10: GBRAP_11_2630 (protein)
chain: KKEALKKAAELAEKAIEKVEELLKKGVDDEELLKELEELLEKLKELVEKHADEALKTLVEVAEELWKEALENPERREEYLKLLLNALRILKAELEEKIEE
B11: GBRAP_11_2784 (protein)
chain: EKEKLEKIAEIAEKLAETLEKLLEEGVDNEELIKKAEELLKELKELVKEHPNKSLQKLAEIAEELWKEFLEDKENAEEYAKQLLAAVRVLHGQVLLELEE
B12: GBRAP_128_3312 (protein)
chain: IDEEIIKKAKELIEKLVKATVEEAAKLTEEIIELMGKASEEERDIIVELFEEGLKKLTAEKLEVVADVLRKQQPKLDPYGANLAAELEVEALNLAEEKEE
B13: GBRAP_139_3727 (protein)
chain: SAEEEAVKKVVELAKKSVEEGNALVGEVADLLNSMSLETAEKALEAIAKEMEEFSFEEVEKFFDELEKEILEKHKNEDLAELVEAARNRALARVAVREEE
B14: GBRAP_35_5622 (protein)
chain: DTDEEIAEATVAVLEDTLAAAGEVPAETFLATALKVAKAGLEVAKELKDNKELAKKILDAAKKLLKTALELAKKTGAPEEVIKELEKLLKEAEKLEKELK
B15: GBRAP_159_3960 (protein)
chain: MEERKEALRADLKALGASEELIEAAVEALELAEEGEDWASVAAHLLHMVTVLGATPEQVLVVLRHLPPELARRVAELLAEWAREQGREELAAALEELLAA
B16: GBRAP_128_3478 (protein)
chain: SVEEVVAKTKELMEKIKNSSLEEVKKLSEELVDLLGSANPEAREAATEVIIEQLPKLSVEKLEVLADVLREKRPELDPLAATQANEIAIEALELAEEKEE
B17: GBRAP_52_6378 (protein)
chain: MVEEAKKLLREAIKLIMEGGEEEEIRKIAKEILKYSEEVIEEAAERLAEELKGLSPEEAEKALEATLKLGDILIEEGLPEEVASLIEAEIGKAAYEVLQR
B18: GBRAP_128_3596 (protein)
chain: STAAVRAWTAATLDAMKTADAAERRALAEELMARFGELSLEEREAMAATIKERAPELSAEDLEILADAARAARPRLDPEGANLLADVEVELLNEAEEQEE
B19: GBRAP_52_6248 (protein)
chain: MSEERRAAAKEILELVLAGDYEGARALAREIARTWNEEELEAFIDEFAELVKTLPKENLEKAWKAAEIIAEVLEEEGKSEELVDLLEAKTAAALVEVEKK
B20: GBRAP_139_3699 (protein)
chain: SELEEKLERARELTRKMEENPEESIKEIVELLKSSSLEDAEKLVREIAEELSKLPLDKAEEYADLILERIEEEIEDEDKVDLAEAILNGALARKAYEEEL
B21: GBRAP_150_3902 (protein)
chain: DLEELLTLVSTAIDILEAILDGHLDLLPHAVKVMKAALEEAKEISPEVKKLAEEALKKVEEALKLKEEGGPEEEIKKAVQEALELAEKLEELVEKLIEEE
B22: GBRAP_78_6695 (protein)
chain: EVEEHLEKALEELGEAATLLAKMGTEEALDILGIVIDVAAEVEEALFGKPDLEELKKALKETEKALKEVEKIDSEEAKEAAEKLKKAIEHLKKAIKELEA
B23: GBRAP_137_3678 (protein)
chain: AKATVKVKEEDDLVVITVTYDDPEKAEEVEEELLDIADEVGALAVSVERDEDGNLVVEIVVPKEKAEELLKKVLEFLKKHADVKLITEKDGEVKEEEFKK
B24: GBRAP_160_4278 (protein)
chain: SEEMKKLAEELEEDKEEILELVDELSPEEVRNDAVVELGSHLLEAIELELITDEEEEELAEIVDKLDEDLKAAENASPEEIRAIIEEHFEKAKEILLKSK
B25: GBRAP_83_6971 (protein)
chain: AEKIVVATTPDHIDSAIEAAKDLATEEGYEVTVAIIGKPEEALEAAKKAAEALKDIKNVSIEVIVENVREEEAEKLKKEVEEIGKKYGLKVEFRAELLPP
B26: GBRAP_78_6627 (protein)
chain: EVEELLEKALEKVEEAAKLATKIPSEKAIDILDELIDAFEYLEEAIEEGGDLEKIEKALKELKKALELIKEQNDPKLEPLKKEVEEAIKLLEKAKKKIKE
B27: GBRAP_43_5767 (protein)
chain: SKELVEGAFETAILLLEDPSISEETKVKAIIAAMELAADEGYVDKELLEKVVELAGKTLSKESLEKILKAAKKLAKEYPESKEAFEEAAKKLEEAIAKKE
B28: GBRAP_52_6254 (protein)
chain: MRARLRADAREIVALVAAGREEEARALARDIAENYNEEELRLFVDEMAALAREARPEELDTVWRAAELMAEELEAAGKPEILVDDLLARVAAAAVEVLAR
B29: GBRAP_139_3686 (protein)
chain: SALDEVVKKAKELTKKAVEEGEEYVKKLVEFLATLSEEEFEAAAKAVAETLQEYDLETAERLADLIEEEAEKILKDEDKRDIVEAELNRALALRAVREEE

target: GABARAP, O95166; test: median log2 fold change of GCK-ALFA target abundance (FLAG IP / Myc IP barcode read proportion) (log2 ratio); each designed protein is fused to an ALFA-tag nanobody in HEK293 cells to bring the named protein to FLAG-tagged glucokinase (GCK); Myc marks an untargeted standard; higher = target protein stabilised (more abundant); conditions: target protein: 3xFLAG-MCP-GCK-ALFA reporter; HEK293 landing pad (RPLP)
Sequence (O95166 whole entry, the tested form may be a part): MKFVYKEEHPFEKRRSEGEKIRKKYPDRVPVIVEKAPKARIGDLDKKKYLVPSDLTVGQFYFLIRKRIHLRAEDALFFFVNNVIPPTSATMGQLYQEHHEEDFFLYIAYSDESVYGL
Procedure, shortened: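 An ALFA-nanobody-fused binder library was recombined into HEK293 landing-pad cells and induced with 2 μg mL^−1 doxycycline. Cells were transfected with a plasmid expressing a FLAG-tagged target and a Myc-tagged standard. After 48 h, lysates underwent anti-FLAG and anti-Myc immunoprecipitation, and circular RNA barcodes were reverse transcribed, amplified and sequenced. Target abundance is the per-binder median log2 ratio of FLAG to Myc barcode read proportions. Barcodes needed ≥10^−7 proportion in both replicates, binders ≥3 barcodes per replicate, and a 10^−6 pseudocount was added; the two replicates were pooled.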

Binder	median log2 fold change
B1	-0.414
B2	-0.0473
B3	-0.413
B4	0.0986
B5	0.0341
B6	0.116
B7	-0.241
B8	0.291
B9	-0.00368
B10	0.295
B11	0.137
B12	0.219
B13	0.17
B14	-0.368
B15	0.154
B16	0.196
B17	0.0773
B18	0.236
B19	0.0309
B20	0.177
B21	0.127
B22	0.172
B23	0.322
B24	-0.312
B25	0.238
B26	-0.061
B27	0.243
B28	-0.285
B29	0.209
